# ± gives the standard deviation of the averaged measurements. In all, about 4,100 sequences were measured (“relative kcat/Km (krel) vs genomic leader AAAGAU”: median about 1.7, highest 2% from about 6.5 on). The entries are a selection whose mix differs from that of the whole data set.
# Biological target: T1, E. coli RNase P holoenzyme (M1 P RNA + rnpA protein) (UniProt P0A7Y8)
# T1 sequence: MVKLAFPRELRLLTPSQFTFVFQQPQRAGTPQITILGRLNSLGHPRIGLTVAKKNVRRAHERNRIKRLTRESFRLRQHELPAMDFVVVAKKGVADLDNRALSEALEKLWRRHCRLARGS
# Assay: relative kcat/Km (krel) vs genomic leader AAAGAU (relative (reference leader = 1)); higher = faster RNase P cleavage
# Protocol: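 HTS-Kin: a pool of ptRNA-Met (21C construct) with all 4096 combinations of 5' leader nucleotides N(-6) to N(-1) was processed in vitro by E. coli RNase P (P RNA + rnpA/C5 protein) under multiple-turnover conditions at 37 C, pH 8, 17.5 mM MgCl2. Residual substrate was Illumina-sequenced at several fractions reacted, and relative kcat/Km (krel) was computed by internal competition kinetics, calibrated to the genomic leader (AAAGAU = 1). The listed hexamer is the varied N(-6)..N(-1) leader (DNA letters), and it sits between a fixed 5' stem-loop flank (GCAUGCACGAAAGUGCGUGCUAUGAA) and the mature tRNA-Met starting GGCUACGUAGCUCAGUUGG. Two technical replicates are averaged.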
# [1] = fraction of substrate reacted: ~9-10% (9.79% repeat 1, 9.1% repeat 2)
# [2] = fraction of substrate reacted: ~13-16% (15.68% repeat 1, 13.17% repeat 2)
# [3] = fraction of substrate reacted: ~26-29% (28.66% repeat 1, 26.4% repeat 2)
sequence,measurement,setting,value
CACGAC,relative kcat/Km,[1],3.62 ± 0.058
same,relative kcat/Km,[2],5.56 ± 2.7
same,relative kcat/Km,[3],7.35 ± 3
TTTCCA,relative kcat/Km,[1],2.16 ± 1.9
same,relative kcat/Km,[2],1.53 ± 0.7
same,relative kcat/Km,[3],1.96 ± 0.23
GGAGAG,relative kcat/Km,[3],1.19 ± 0.14
ATACAG,relative kcat/Km,[2],0.502 ± 0.011
same,relative kcat/Km,[3],1.55 ± 0.32
TGTAAT,relative kcat/Km,[1],2.34 ± 0.17
same,relative kcat/Km,[2],3.51 ± 0.42
same,relative kcat/Km,[3],5.46 ± 2.6
CCTCAC,relative kcat/Km,[1],2.54 ± 0.75
same,relative kcat/Km,[2],3.07 ± 0.55
same,relative kcat/Km,[3],4.22 ± 1.2
CCTGCA,relative kcat/Km,[1],2.11 ± 2.1
same,relative kcat/Km,[2],1.19 ± 0.28
same,relative kcat/Km,[3],1.72 ± 0.075
CATATG,relative kcat/Km,[2],0.7 ± 0.15
same,relative kcat/Km,[3],2.03 ± 0.046
GTACTC,relative kcat/Km,[1],2.13 ± 1.3
same,relative kcat/Km,[2],2.3 ± 0.072
same,relative kcat/Km,[3],2.74 ± 0.8
CACCGC,relative kcat/Km,[1],2.34 ± 0.56
same,relative kcat/Km,[2],3.87 ± 1.6
same,relative kcat/Km,[3],5.89 ± 2.7
CGAGGT,relative kcat/Km,[3],1.41 ± 1.2
CCCGAA,relative kcat/Km,[1],2.83 ± 1.5
same,relative kcat/Km,[2],4.35 ± 1.8
same,relative kcat/Km,[3],6.76 ± 2.5
TCCAAT,relative kcat/Km,[1],3.48 ± 2.1
same,relative kcat/Km,[2],4.14 ± 0.76
same,relative kcat/Km,[3],6.63 ± 2.2
TAGATT,relative kcat/Km,[1],1.8 ± 0.39
same,relative kcat/Km,[2],2.38 ± 0.32
same,relative kcat/Km,[3],3.32 ± 1.5
AACGAG,relative kcat/Km,[2],1.42 ± 0.15
same,relative kcat/Km,[3],2.41 ± 0.57
TAATAC,relative kcat/Km,[1],3.99 ± 2.4
same,relative kcat/Km,[2],4.78 ± 0.74
same,relative kcat/Km,[3],6.42 ± 2.7
GAGTGC,relative kcat/Km,[1],1.03 ± 0.13
same,relative kcat/Km,[2],1.33 ± 0.72
same,relative kcat/Km,[3],1.47 ± 0.14
CATTTT,relative kcat/Km,[1],2.65 ± 1.1
same,relative kcat/Km,[2],3.21 ± 1.1
same,relative kcat/Km,[3],4.88 ± 2.1
TCAGTG,relative kcat/Km,[3],0.958 ± 0.53
AAGGGC,relative kcat/Km,[1],0.68 ± 0.22
AGTGAT,relative kcat/Km,[1],1.12 ± 0.52
same,relative kcat/Km,[2],1.2 ± 0.46
same,relative kcat/Km,[3],1.1 ± 0.13
GCGATG,relative kcat/Km,[3],1.2 ± 0.27
ATGTGA,relative kcat/Km,[2],1.3 ± 0.95
same,relative kcat/Km,[3],2.33 ± 0.9
TAAAAT,relative kcat/Km,[1],2.3 ± 1
same,relative kcat/Km,[2],2.59 ± 0.13
same,relative kcat/Km,[3],3.6 ± 1.6
GGACTA,relative kcat/Km,[1],1.56 ± 0.44
same,relative kcat/Km,[3],1.3 ± 0.29
CAGACC,relative kcat/Km,[1],2.58 ± 1.8
same,relative kcat/Km,[2],1.99 ± 0.3
same,relative kcat/Km,[3],1.97 ± 0.42
ACTATC,relative kcat/Km,[1],1.58 ± 0.92
same,relative kcat/Km,[2],1.63 ± 0.33
same,relative kcat/Km,[3],2.1 ± 0.46
TCTCTC,relative kcat/Km,[1],2.46 ± 0.63
same,relative kcat/Km,[2],2.53 ± 0.076
same,relative kcat/Km,[3],3.23 ± 1.1
CTCGGA,relative kcat/Km,[3],0.671 ± 0.41
TCGGGC,relative kcat/Km,[3],1.18 ± 0.74
ATGGGA,relative kcat/Km,[3],1.49 ± 1.4
CCCATT,relative kcat/Km,[1],3.01 ± 1.9
same,relative kcat/Km,[2],3.28 ± 1
same,relative kcat/Km,[3],4.55 ± 1.2
CACTAA,relative kcat/Km,[1],4.69 ± 2
same,relative kcat/Km,[2],6.03 ± 0.39
GGTGAT,relative kcat/Km,[1],1.04 ± 0.56
same,relative kcat/Km,[2],1.41 ± 0.93
same,relative kcat/Km,[3],0.836 ± 0.12
TCGTAA,relative kcat/Km,[1],3.3 ± 0.9
same,relative kcat/Km,[2],3.79 ± 0.62
same,relative kcat/Km,[3],6.16 ± 2.7
AGCCAT,relative kcat/Km,[1],3.54 ± 1.2
same,relative kcat/Km,[2],3.08 ± 0.86
same,relative kcat/Km,[3],4.77 ± 2
AATGAA,relative kcat/Km,[1],2.18 ± 1.1
same,relative kcat/Km,[2],2.14 ± 0.073
same,relative kcat/Km,[3],2.72 ± 0.88
CCCAAT,relative kcat/Km,[1],2.73 ± 0.86
same,relative kcat/Km,[2],3.48 ± 0.28
same,relative kcat/Km,[3],5.27 ± 1.6
CTATTT,relative kcat/Km,[1],2.47 ± 0.62
same,relative kcat/Km,[2],2.94 ± 0.044
same,relative kcat/Km,[3],4.35 ± 1.7
TTACTC,relative kcat/Km,[1],2.66 ± 1.6
same,relative kcat/Km,[2],2.15 ± 0.39
same,relative kcat/Km,[3],2.78 ± 1.1
ATTAGC,relative kcat/Km,[1],2.45 ± 0.043
same,relative kcat/Km,[2],2.96 ± 1.1
same,relative kcat/Km,[3],3.69 ± 2.3
AATAAA,relative kcat/Km,[1],2.18 ± 0.14
same,relative kcat/Km,[2],2.61 ± 0.59
same,relative kcat/Km,[3],3.16 ± 1.1
GCTGCA,relative kcat/Km,[1],1.48 ± 0.78
same,relative kcat/Km,[2],1.42 ± 0.66
same,relative kcat/Km,[3],1.21 ± 0.6
TTCACA,relative kcat/Km,[1],4.51 ± 1.9
same,relative kcat/Km,[2],5.55 ± 0.86
same,relative kcat/Km,[3],7.72 ± 3.1
GAGAGT,relative kcat/Km,[1],0.122 ± 0.072
same,relative kcat/Km,[2],1.48 ± 0.097
TTGTAA,relative kcat/Km,[1],3.67 ± 1.1
same,relative kcat/Km,[2],4.3 ± 1.1
same,relative kcat/Km,[3],6.19 ± 2.7
TAGTTC,relative kcat/Km,[1],2.74 ± 1.1
same,relative kcat/Km,[2],3.13 ± 0.089
same,relative kcat/Km,[3],4.29 ± 1.8
GGGCAG,relative kcat/Km,[3],1.13 ± 0.077
GACCTT,relative kcat/Km,[1],2.25 ± 0.24
same,relative kcat/Km,[2],3.46 ± 0.31
same,relative kcat/Km,[3],5.08 ± 2.5
CACGGG,relative kcat/Km,[3],0.479 ± 0.22
TCTCCC,relative kcat/Km,[1],1.59 ± 0.21
same,relative kcat/Km,[2],1.94 ± 0.69
same,relative kcat/Km,[3],3.09 ± 1.2
GGATGT,relative kcat/Km,[3],1.06 ± 0.81
TGTCAG,relative kcat/Km,[2],1.4 ± 0.17
same,relative kcat/Km,[3],3.3 ± 0.62
GGGCGA,relative kcat/Km,[1],0.804 ± 0.064
same,relative kcat/Km,[2],0.798 ± 0.057
same,relative kcat/Km,[3],1.72 ± 0.52
